# Experimental data published in paper PMC4336329 (PLoS ONE, 2015).
# In all, about 310,000 compounds went through this assay and about 14,000 (4.5%) showed an effect of 50% or more. The effect is printed as a negative number. The list shows a part of the results.
# Target: human ether-à-go-go-related gene (hERG) potassium channel (human, UniProt Q12809)
# Assay: primary screen, population patch clamp on CHO cells stably expressing hERG
# 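Note: peak tail current of the secondary pulse compared with the same well before compound.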
# human ether-à-go-go-related gene (hERG) potassium channel, sequence (Q12809 whole entry, looked up): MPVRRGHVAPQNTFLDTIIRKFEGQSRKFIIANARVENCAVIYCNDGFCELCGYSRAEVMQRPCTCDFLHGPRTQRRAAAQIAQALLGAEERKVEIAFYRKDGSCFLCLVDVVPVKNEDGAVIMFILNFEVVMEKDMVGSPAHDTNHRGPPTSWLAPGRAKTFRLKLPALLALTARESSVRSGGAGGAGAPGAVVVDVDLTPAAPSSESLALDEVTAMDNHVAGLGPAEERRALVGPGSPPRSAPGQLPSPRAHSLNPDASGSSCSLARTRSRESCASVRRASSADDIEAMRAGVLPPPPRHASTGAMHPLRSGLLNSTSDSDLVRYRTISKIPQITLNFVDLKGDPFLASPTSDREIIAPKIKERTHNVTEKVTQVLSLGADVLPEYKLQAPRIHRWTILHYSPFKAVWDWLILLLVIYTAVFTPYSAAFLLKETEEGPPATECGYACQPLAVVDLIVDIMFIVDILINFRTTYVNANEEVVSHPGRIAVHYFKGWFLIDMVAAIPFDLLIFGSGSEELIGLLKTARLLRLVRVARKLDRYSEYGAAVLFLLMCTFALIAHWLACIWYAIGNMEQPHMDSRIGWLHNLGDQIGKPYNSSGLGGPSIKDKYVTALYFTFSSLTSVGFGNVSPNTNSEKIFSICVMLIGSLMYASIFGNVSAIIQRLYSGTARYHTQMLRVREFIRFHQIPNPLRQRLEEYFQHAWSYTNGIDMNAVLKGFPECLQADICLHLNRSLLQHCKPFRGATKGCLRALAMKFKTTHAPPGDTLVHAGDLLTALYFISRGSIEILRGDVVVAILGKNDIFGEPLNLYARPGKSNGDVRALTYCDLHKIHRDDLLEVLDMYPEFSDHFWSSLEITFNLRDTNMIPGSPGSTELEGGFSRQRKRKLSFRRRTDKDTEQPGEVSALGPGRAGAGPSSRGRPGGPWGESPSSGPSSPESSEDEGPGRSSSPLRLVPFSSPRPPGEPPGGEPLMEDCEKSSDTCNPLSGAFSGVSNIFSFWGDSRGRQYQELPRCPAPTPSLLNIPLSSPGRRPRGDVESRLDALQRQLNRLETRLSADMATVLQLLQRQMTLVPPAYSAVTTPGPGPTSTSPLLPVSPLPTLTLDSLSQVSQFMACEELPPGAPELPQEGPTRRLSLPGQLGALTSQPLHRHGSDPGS
row,Structure (SMILES),"hERG current change (%, negative = inhibition) at 10uM"
1,CCN1CCN(S(=O)(=O)c2ccc(Cl)c(C(=O)Nc3ccccc3N3CCOCC3)c2)CC1,11.8%
2,O=C(Cc1ccccc1)N1CCN(S(=O)(=O)c2ccc([N+](=O)[O-])cc2)CC1,-64%
3,O=C1c2ccccc2NC(c2cccc([N+](=O)[O-])c2)N1CCc1ccccc1 (stereo not shown),-31.3%
4,Cc1cc(N2CCN(S(=O)(=O)c3ccc(C)c(C)c3)CC2)c2ccccc2n1,-64.6%
5,O=C(NN=C1c2ccccc2-c2ccccc21)c1ccccc1Br,-4.41%
6,Cc1cc(NC(=O)CN2CCN(S(=O)(=O)c3ccc(Cl)cc3)CC2)no1,-15.4%
7,Cc1ccc(C(=O)Oc2cc(N)n(S(=O)(=O)c3ccc(F)cc3)n2)cc1,19.9%
8,CCOc1ccc(OCC)c(NC(=O)C2CCN(S(=O)(=O)c3cnc[nH]3)CC2)c1,-9.97%
9,O=C(Nc1nnc(-c2ccccc2F)s1)c1ccccc1F,-1.93%
10,COc1ccc(-c2ccc(C#N)c(SCC(=O)NCc3ccco3)n2)cc1OC,-14.3%
11,CCc1ccc(OCC(=O)Nc2ccc(N3CCN(C(=O)c4ccccc4)CC3)cc2)cc1,-10.1%
12,CC(=O)N1c2ccc(S(=O)(=O)N3CCCC3)cc2CC1C(=O)NC(C)C (stereo not shown),14.4%
13,O=C1CCCC(O)=C1N=Nc1ccc(S(=O)(=O)N2CCOCC2)cc1,2.06%
14,COc1cc(NS(=O)(=O)c2ccc(NC(=S)NC(=O)c3ccccc3)cc2)nc(OC)n1,-6.97%
15,Cc1cc(=O)n2nc(N3CCCC3C(=O)Nc3ccc(C(C)C)cc3)sc2n1 (stereo not shown),-41.3%
16,COc1ccc(CNC(=O)COC(=O)/C=C/c2cccc(Br)c2)cc1,18.9%
17,CCCCCOC(=O)c1cc(=O)[nH]c2ccccc12,4.7%
18,CCCCC(=O)c1c(O)c2ccccc2oc1=O,20.5%
19,O=C(OCC#CCSc1nnc(-c2cccc3ccccc23)o1)c1ccco1,-2.9%
20,CCOC(=O)CCCNC(=O)COC(=O)c1cc(Br)c(Br)s1,3.74%
21,O=C(CC1Nc2ccccc2NC1=O)Nc1cc(Cl)cc(Cl)c1 (stereo not shown),5.99%
22,Cc1ccc(CO/N=C/c2c(O)cc(C)oc2=O)cc1,30.9%

row,Structure (SMILES),"hERG current change (%, negative = inhibition) at 10uM"
1,Cc1cc(C)c(S(C)(=O)=O)c(Oc2ccccc2C)n1,18.6%
2,O=C1c2cccc3cccc(c23)C(=O)N1CCN1CCN(CC(O)COc2ccccc2)CC1 (stereo not shown),-60%
3,NC(=O)c1nsc(C(=O)N(c2ccccc2)C(C(=O)NC2CCCC2)c2ccc3ncccc3c2)c1N (stereo not shown),14.9%
4,Cc1cc(C(=O)Nc2c(F)c(F)c(F)c(F)c2F)n(-c2ccccc2)n1,-59.1%
5,CCC(C(=O)OC)n1cnc2c(nnn2-c2ccc(OC)cc2)c1=O (stereo not shown),-6.48%
6,CCN(CC)c1ccc(NC(=O)C2=CCN(S(=O)(=O)c3ccc(F)cc3)CC2)c(C)c1,-6.97%
7,Cc1nn(-c2ccccc2)c(Cl)c1C1C(C#N)=C(N)OC2=C1C(=O)CCC2 (stereo not shown),-9.97%
8,O=C(NCCCN1CCOCC1)c1sc2ccccc2c1Cl,-9.81%
9,O=C(CN(C(=O)CNS(=O)(=O)c1ccccc1)c1ccc(F)cc1)NCc1ccco1,11%
10,CC(=O)Nc1ccc2nc3c(=O)n(C)c(=O)n(C)c3nc2c1,5.46%
11,CCN(CC)S(=O)(=O)c1ccc2[nH]c(=O)cc(C(=O)Nc3ccccc3N3CCOCC3)c2c1,-18.9%
12,CC(C)N(C)CCOC(=O)C1COc2ccccc2O1.Cl (stereo not shown),13.9%
13,COc1ccccc1N1CCN(C(=O)c2ccoc2C)CC1,13.2%
14,CCNC(=S)N1CCN(CC)CC1.O=C(O)C(=O)O,-5.33%
15,COc1ccc(OC)c(S(=O)(=O)NCc2ccccc2)c1,-17.3%
16,Cc1ccc(OCC(=O)N2CCCc3ccccc32)cc1,-13.6%
17,COc1ccc(N2CCN(C(=O)C3CCN(S(=O)(=O)c4ccc5c(c4)oc(=O)n5C)CC3)CC2)cc1,2.75%
18,Cn1c(CSc2ccccc2)c(C#N)c2ccccc21,-5.9%
19,COc1ccccc1N1CCN(Cc2cc(=O)n3ccsc3n2)CC1,7.83%
20,Nc1cccc(Oc2ccc3c(c2)C(=O)N(CC2CCCO2)C3=O)c1 (stereo not shown),1.72%
21,Cc1c(Cl)cccc1NC(=S)NCC(C)C,12.3%
22,O=C(c1ccc2ccccc2n1)N(CCO)Cc1ccccc1,13.5%

row,Structure (SMILES),"hERG current change (%, negative = inhibition) at 10uM"
1,O=C(N/N=C/c1cccc(F)c1)c1csc2c1CCCC2,-30%
2,COc1ccc(Cl)cc1NC(=O)Nc1cccc([N+](=O)[O-])c1C,15.5%
3,Cc1ccc(NC(=O)NCc2cccnc2)cc1Cl,4.73%
4,Cc1cc(C)n(CNc2nc(C(F)(F)F)cs2)n1,6.5%
5,N#Cc1c(-c2ccccc2Cl)cc(-c2ccccc2)nc1Br,28.4%
6,CCCCN(C)C(=O)c1nc2ccccn2c1CN1CCN(C(=O)c2cccs2)CC1,-51.8%
7,Cc1nn(-c2ccc(F)cc2)c(Cl)c1C(=O)N(C)CC(=O)Nc1cccc(F)c1,-15.9%
8,Cc1cc(=O)oc(C)c1C(=O)N[C@@H]1CCCCNC1=O,7.72%
9,Cc1nc(-c2cccc(NC(=O)c3cccc(S(=O)(=O)N4CCCC4)c3)c2)cs1,-18.7%
10,Cc1[nH]c2ccccc2c1SCC(=O)NNC(=O)Nc1ccc(OC(F)(F)F)cc1,8.03%
11,COc1ccc(C2(C)CC(C)(C)Nc3ccccc32)cc1 (stereo not shown),13.8%
12,C/C(=N\NC(=O)c1ccc(N)cc1)C1CC1,8.16%
13,CC1(C)NC(=O)N(CCSc2ccc(Cl)cc2)C1=O,8.33%
14,C=CCNC(=S)Nc1ccc(Cl)cc1F,18.6%
15,Cc1cc(C)n(S(=O)(=O)c2ccc(C)c(C)c2)n1,19.7%
16,O=P(Cc1ccncc1)(c1ccccc1)c1ccccc1,-5.14%
17,Cc1csc(SCC(=O)Nc2nncs2)n1,3.68%
18,CCC1(O)CC(C(=O)OC)=NN1C(=O)c1ccccc1 (stereo not shown),7.94%
19,COc1ccc(NC(=O)c2ccco2)cc1S(=O)(=O)N1CCCCC1,-46%
20,COc1ccc(CCn2c(C)cc(C(=O)COC(=O)c3cnc(C)cn3)c2C)cc1,-29%
21,COc1ccccc1N1CCN(S(=O)(=O)Cc2ccccc2Cl)CC1,-2.74%
22,CCOC(=O)C1(Cc2ccccc2)CCN(Cc2nccn2CC)CC1,-20%

row,Structure (SMILES),"hERG current change (%, negative = inhibition) at 10uM"
1,COc1ccccc1N1CCN(c2ccc(N3C(=O)CCC3=O)cc2[N+](=O)[O-])CC1,23.5%
2,CC(C)=C(NC(=O)c1ccccc1)C(=O)N1CCOCC1,1.45%
3,O=C(COc1ccc(/C=N/NC(=O)c2ccc(O)cc2)cc1)Nc1ccc([N+](=O)[O-])cc1,8.14%
4,COc1ccc(-c2cc(C(=O)NCCCn3ccnc3)c3ccccc3n2)c(OC)c1,-32%
5,COc1cc(NC(=O)c2cccs2)c(OC)cc1NC(=O)CCC(=O)Nc1cccc2ncccc12.Cl,-9.27%
6,C/C(=N/NC(=O)c1cccs1)c1ccc(N2CCOCC2)cc1,4.72%
7,COC(=O)c1sc(C(F)(F)F)c(-c2ccccc2)c1S(=O)(=O)NC(C)(C)C,1.82%
8,CC1=C(C(=O)OC(C)C)C(c2coc3ccccc3c2=O)C2=C(CCCC2=O)N1 (stereo not shown),-0.803%
9,Cc1ccc(/C=N/NC(=O)Cn2nc(C)c([N+](=O)[O-])c2C)o1,9.12%
10,CC1(C)CC(CCNC(=O)CCl)(c2ccccc2)CCO1 (stereo not shown),22.1%
11,O=C(N/N=C/C=C/c1ccccc1[N+](=O)[O-])c1cc(-c2cccnc2)nc2ccccc12,-2.81%
12,Cc1c(Cl)c([N+](=O)[O-])nn1Cc1ccc(C(=O)NN)o1,-1.63%
13,Cc1cc(C)n(-c2nc3c(c(=O)[nH]c(=O)n3C)n2Cc2ccc(F)cc2)n1,-4.72%
14,Cc1onc(-c2ccccc2)c1C(=O)N/N=C/C=C/c1ccccc1,8.24%
15,CC(C)NC(=O)CN(Cc1ccc2c(c1)OCO2)C(=O)CCC(=O)Nc1ccccn1,1.7%
16,Cc1ccc(C2=N/C(=C\c3cccnc3)C(=O)O2)cc1,4.43%
17,COc1ccc(C(=O)C2CCCN(Cc3cnc(N4CCOCC4)s3)C2)cc1F (stereo not shown),-47.6%
18,COc1ccc(CNC(=O)CNC(=O)c2cccs2)c(OC)c1,13%
19,O=C(CN(CCc1ccccc1)S(=O)(=O)c1ccc(Cl)cc1)N/N=C/c1ccccc1C(=O)O,14.6%
20,O=C(Nc1cccc(C(F)(F)F)c1)Nn1cnnc1,24%
21,Cc1cc(C)c2[nH]c(=O)c(CN(CC3CCCO3)C(=O)c3cnccn3)cc2c1 (stereo not shown),-2.75%
22,O=C(Nc1ccc2c(c1)CCC2)c1cccc(F)c1,-14.1%
